# Measurements reported in the supplement of paper PMC11417369.
# The other results are listed elsewhere or left out.
# Tested on: PfAP2-HC AP2 domain (GST-tagged)
# Experiment: gcPBM binding intensity (ln(normalized median fluorescence intensity)); higher = stronger DNA binding
# Method in brief: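 GST-tagged P. falciparum DNA-binding domains produced in E. coli were incubated for 1 h on an Agilent 4 × 180k array of primer-extended double-stranded 36-bp intergenic genomic probes with negative controls. Binding intensity is the highest Masliner-normalised natural-log median intensity across replicate spots of either probe orientation, with bound protein detected by Alexa488 anti-GST antibody at 488 nm.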
row,Sequence,gcPBM binding intensity (ln)
1,AATAAATATATTAAAAGTACACAAATATTATTTAAT [XGTACX_site2482],9.71
2,AAGATTAAACATTGCACACAAAAACATATTTTCTAT [CACACA_site530],9.87
3,ATATATATATAATAATGTACTTATAATAGATGTGTA [XGTACX_site4677],9.72
4,ATATTTTATATAATAGTGCAAATAATATTAAATAAT,9.6
5,ATTATAATATTTAATTGTACTTGTATTTATTCCAAA [XGTACX_site6417],9.6
6,TAATAAAAAGTTGAGGTGCATATAGAGTTCTTCTTT [GTGCAC_site9508],9.65
7,TGCCCTTTGGTTATAACACACATGCACCCGTAAATA [CACACA_site3842],9.75
8,CAAAGGAAACCTATCTGTACACATATTGGGGGAAAA [XGTACX_site3502],9.55
9,AGAAGATTAAACATTGCACACAAAAACATATTTTCT [CACACA_site8072],9.8
10,AATATATAAGCTGTTCTATTCAAGAATTATATCTTA [CACACA_negctrl_site270],9.46
11,CGTAAACGATATAAATGTACGAATATCTATATATTA [XGTACX_site8116],9.54
12,TATATATTGCCCTTCACACACACACCGATATATATA [CACACA_site5390],10.3
13,GAACGATATATTATATGTACATATATATATATATAT [XGTACX_site394],9.71
14,TCGTTTCATAATATTGTGCACATATATATTTACAAT,9.85
15,TATTTCATCTTTTAAGAAGGTACCCATATGTCATAT [GTGCAC_negctrl_site403],9.57
16,ATATATATATATATTTGTACTTACATTTTTATTTAT [XGTACX_site4551],9.82
17,AAAAATATAACCGTTACACACAAAATAATATGAGAA [CACACA_site3773],9.93
18,ATAATAAGGTTAAGCACACATATTACATATATAACT [CACACA_site3356],10
19,AATAGGATATGGTACATTTTTTGTATACTTTTTGTT [CACACA_negctrl_site1804],9.76
20,AAACAAGTAATTGTTATTATTATTATATTATTATTA [CACACA_negctrl_site402],9.47
21,ATAAATTCTATGTATACACACATATATAATATATAT [CACACA_site2689],9.99
22,GTTATTAAATAATTCACACACATATATATATATATA [CACACA_site2260],9.93
23,TATGGAACACACCTTAATATGTGATAAAATATGATA [GTGCAC_negctrl_site718],9.71

row,Sequence,gcPBM binding intensity (ln)
1,TATTCCTATATACAGCGTACAAAAAATAATATGTAT [XGTACX_site8112],9.64
2,CGCAACGTGAAAATACGTACACATACATTTTTATAT [XGTACX_site330],9.65
3,AAATATTATGTACGCACACACATTTTTGATATATAA [CACACA_site7755],10.1
4,TAATCGTTTTATAAATGTACAAAATTGTTATGTTAT [XGTACX_site5147],9.57
5,GGGGGAAGGTTGAAGGTGCTTGATGGAGAAAAATAT,9.77
6,TTAATACATACATTCACACACACTAAATGTATATTT [CACACA_site4105],10.1
7,AAAATAGAGTTGAATGCACACATACAAATTTTTAGG [CACACA_site9188],10.1
8,ATAAATAATTTATTCACACATACAAAAGTTTACAAA [CACACA_site5666],9.63
9,TTATTAAATTCTTTATTTAGCATATACAATAAAAGA [CACACA_negctrl_site1420],9.05
10,TTTTTTTTTTTTGAAGTGCATGTTACGATGAACAAA [GTGCAC_site9451],9.16
11,CTAAAAAGAGAAGTGTGTCCTCAAATTAATATAATT [XGTACX_site1057],9.63
12,TCTTATATAACGAAAGTAAAATAATATGCTAAGCAT [CACACA_negctrl_site668],9.38
13,AATGAATATTAAAGGAGTACACATAATAAGTAAGAA [XGTACX_site7354],10
14,TATATAAAAATATACACACACAAATGTATTTATATA [CACACA_site4284],9.93
15,GAAAAAAAAAAAAATACACACAAATTGGTATAGAAT [CACACA_site380],10.2
16,GATTATTTCTAAAAAGTGCATATTTAAAAATCTCCT,9.26
17,ATTGTTTTGTAATATGAAAAAATTGTGTAATGTGTC [CACACA_negctrl_site1510],9.66
18,TATTATATTATACATACACACCCATATAATATGTTT [CACACA_site8191],9.83
19,AAATTCGTAATAATGTGTACATAACTATACATAATT [XGTACX_site1717],9.78
20,AAAAAATAGAATATGGGTACTAAAAAGATACAAACA [XGTACX_site4464],9.8
21,ATTTATATGAAAATATGTACTTATATAAATTTATTT [XGTACX_site53],9.64
22,TTTATTTTTAACAGTGCACACATAACTTAATTATAT [CACACA_site8681],9.8
23,TATACAGATGGACACACACACATAAATAAATATATA [CACACA_site4863],10.4

row,Sequence,gcPBM binding intensity (ln)
1,TACTATAACCCACATACACACAAAAAAAAAAAAAAA [CACACA_site4454],10.2
2,TGGTTTATTTATTAAGTGCATAAATGCAATATATAT,9.54
3,TATTATATATTTAATAGTACATATAAAATAATAAGG [XGTACX_site4823],9.58
4,TTTATGTAATATACATGTACAGAATATAAAATATAT [XGTACX_site6906],9.7
5,AAAAAATATAGATGCACACACAAAAAAACAAATTAA [CACACA_site6718],10.5
6,TTAACTTCTTTAAAATGTACATATATTAAATAATAA [XGTACX_site3391],9.28
7,TATTCTTACATCACCTCACACATTTAATATTCCTTA [CACACA_site4693],9.78
8,GTATTATTATTTTATGCATGTACATTGAATTATATT [TGCATGCA_site34],9.86
9,AGATTTTGAAATTATAAAAAAATTTCACTTCATTTA [CACACA_negctrl_site888],9.29
10,ATATATATATATCAGAGTACATTCTTTAAAATATAT [XGTACX_site5915],9.56
11,TATAAATATGTATATGCATGTGGAATATATAATTAA [TGCATGCA_site226],9.69
12,AAATAAAACAGACACACACACACATACACAAAAAAA [CACACA_site7753],10.9
13,ATATGAGTATAAAAATGTACGGAGCAACTAAATATA [XGTACX_site620],9.8
14,ATTACAACCACATTGACATGCAAATGTAGAGGGGGA [TGCATGCA_site694],9.8
15,TGTCACCTATTTTTTTGTACGTATGTCCATTTTTTT [XGTACX_site4368],10.2
16,AAAAAAAAAGAGGCGTGTACATATATAATTTAAATT [XGTACX_site6827],9.8
17,TTATTAAAGTATAACTGTACATGCGAGTAAAAGAAT [XGTACX_site7388],9.95
18,TGTTCTAATATTTGTTGTACATTTACATTTCTCTCT [XGTACX_site2585],9.81
19,ATAATAGAAACAAACAGTACACATACCTAAAAGGAA [XGTACX_site8647],9.84
20,TATTTTATTTCAAATCTTAATAATTGTAATTCTTCA [XGTACX_negctrl_site442],9.45
21,TTTTAATTAGAAATCATACACACATATATATATATA [CACACA_site174],9.7
22,ATTTTTAAAATAAATACATGCATATATTTATATGTT [TGCATGCA_site394],9.57
23,TGTGTAATACATAATACACACATGTATATGTCGCAT [CACACA_site4757],9.86

row,Sequence,gcPBM binding intensity (ln)
1,ATTTACATAAACGTCTGTACTAATATACAATTTTCT [XGTACX_site1700],9.75
2,CATAAAATTGTATTTTGTACACATTTTGTATACATT [XGTACX_site5705],9.77
3,TATATATAGAAACACACACACATATATATATATATT [CACACA_site4115],10.5
4,TTTCAAAGGAAATGGTGTACACAATTTTTCCTTTTT [XGTACX_site2340],9.47
5,TTTTATTATTCTTCTCTCTTATATATATATATATAT [CACACA_negctrl_site646],9.98
6,ATAACATAGGCAATCACACATATCATTAAGGTGTCA [CACACA_site5233],9.77
7,TACTTTTATATGAATACACACAGGAATATATATATG [CACACA_site3568],9.71
8,ACTGTGGTATAAAGTTGTACATGTTTTTATATATTT [XGTACX_site5257],10
9,TTACTTTAACCTTCTCGTACTTATTTACTTTATTCT [XGTACX_site7801],9.9
10,TCGATTAAAACACAAAAATATAAATACATTGATAAA [TGCATGCA_negctrl_site523],9.44
11,TTAATAAATATGTTTACACACGAAAATACATTTTTT [CACACA_site8245],9.81
12,TTAAAAGTTATGGATACACACATATAAATATAGATT [CACACA_site7175],9.84
13,ATTTTAATTTTTTAAGTATTATATGAATATTTATTA [TGCATGCA_negctrl_site142],9.48
14,ACATATATATATATATATATATATATATATTCTTAA [CACACA_negctrl_site930],9.41
15,TAATTTTCATAATTTTGTACTTAACGTTTTACCTTG [XGTACX_site8048],9.72
16,CACACGCACGAACACACACACACACGCGCACATATA [CACACA_site6304],11
17,GTCTAAAAATAAAAAGTGCATTTGTTTAATATTTTG,9.6
18,TTAATTTTTTTTTTTTGTACTCATATGTAATTCATC [XGTACX_site3071],9.51
19,TGATTGTATTAAAATGCACACATATCAAGAGGAATT [CACACA_site7985],9.85
20,TATTATTATTATTATTTTAAAAGAAATAAAAATATG [XGTACX_negctrl_site119],9.19
